Among all 210,000 compounds or so, about 5,900 (2.8%) were called active. Inconclusive means that the source gave no clear call. Such entries were picked first, then a sample of the others. The call rests on the fitted dose curve; in most records, active means well fitted activation curve with a large enough effect; inconclusive means small, poorly fitted or top-dose-only effect; inactive means no such curve, though single readings can be large or run the other way. Potencies of inconclusive entries are doubtful fits and often do not repeat.
Assay: qHTS Assay for Enhancers of SMN2 Splice Variant Expression; further: nearly all actives have a fitted effect of over 55% in size; on activity change, positive = activation: % of control where 0% means no effect
Conditions: HEK293 SMN2-luciferase splicing reporter, luminescence, 30-36 h; activity change, positive = activation: at 46.1 µM (top of the series)
Outline: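 HEK293 cells carry an SMN2 […]–luciferase reporter in which exon 7 inclusion puts luciferase in frame. Cells were plated 10-12 h before compound addition, then incubated 30-36 h at 37C. ONE-Glo luminescence was read; sodium butyrate at 4.5 mM final served as control.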
Potency means the concentration at half of the fitted maximal effect; tags describe the fitted curve by direction and shape.

SMILES | Potency | activity change, positive = activation
c1ccc(-c2nc(NC3CC3)nc(-n3ccnc3)n2)cc1 | inconclusive: 6.31 µM [activator, single point] | –
NC(=O)c1cnn(-c2ccc3ccccc3c2)c1N | active: 17.8 µM | –
CNC(=S)N/N=C(\C)c1ccc(N2CCOCC2)cc1 | inconclusive: 5.01 µM [activator, partial curve, poor fit] | –
COc1ccccc1/C=C/C=C1\Oc2c(ccc(O)c2CN2CCN(CCO)CC2)C1=O | – | inactive: 24.5%
O=C(CSc1nnc2n(C3CCCC3)c(=O)c3ccccc3n12)N1CCCCCC1 | inconclusive: 3.55 µM [activator, partial curve, poor fit] | –
Cc1nn(Cc2ccccc2Cl)c(C)c1NC(=O)c1nc2ncccn2n1 | inconclusive: 10 µM [activator, single point] | –
COCCSc1ccccc1C(=O)Nc1ccccc1C(C)C | – | inactive: -4.09%
O=C(NC(C(=O)c1ccccc1)N1CCOCC1)c1ccccc1 (centres undefined) | inconclusive: 35.5 µM [activator, partial curve] | –
CCOCCCNC(=O)c1cc2c(=O)n3ccccc3nc2s1 | inconclusive: 3.16 µM [activator, full curve] | –
CCOC(=O)c1[nH]c2ccccc2c1NC(=O)Nc1ccc(OC)cc1 | inconclusive: 35.5 µM [activator, single point] | –
CSc1cc(-c2ccc(Cl)cc2)c(C(=O)NN)s1 | inconclusive: 0.0355 µM [activator, full curve] | –
COc1ccccc1-n1cc(C(=O)NCC(=O)N2CCN(c3ccccc3)CC2)c2ccccc2c1=O | inconclusive: 20 µM [activator, single point] | –
Cc1ccc(C(=O)Nc2ccc(S(=O)(=O)Nc3onc(C)c3C)cc2)cc1 | – | inactive: -2.54%
COc1ccc(-n2c(C)cc(/C=C3\C(=O)NN(c4ccccc4)C3=O)c2C)cc1 | inconclusive: 22.4 µM [activator, partial curve, poor fit] | –
COc1ccc([N+](=O)[O-])cc1NC(=O)CC1SC(=Nc2cccc(C)c2C)N(/N=C/c2cccc(OC)c2OC)C1=O (centres undefined) | – | inactive: 2.16%
COc1ccc(C(=O)Nc2ccc(C3(C#N)CCCC3)cc2)cc1 | – | inactive: -1.22%
O=c1oc2cc(OCc3nn[nH]n3)ccc2c2c1CCCC2 | inconclusive: 35.5 µM [activator, single point] | –
COc1cccc(-c2nn(C)c3sc(C(=O)NCc4ccco4)cc23)c1 | inconclusive: 28.2 µM [activator, single point] | –
Cc1ccc(S(=O)(=O)NC(=O)c2cc(C)n(CCCN3CCOCC3)c2C)cc1 | inconclusive: 12.6 µM [activator, single point] | –
CN1/C(=C/C(=O)C2CCC2)Sc2ccccc21 | inconclusive: 35.5 µM [activator, single point] | –
CCCOC(=O)Nc1nc2ccccc2o1 | inconclusive: 17.8 µM [activator, partial curve, poor fit] | –
CCN(CC)c1ccc(-n2cc3c(=O)n(C)c(=O)n(C)c3c2)cc1 | – | inactive: 10.7%

SMILES | Potency | activity change, positive = activation
O=C1C(Cl)=C(NCC2CCCO2)C(=O)N1CCc1ccccc1 (centres undefined) | active: 12.6 µM | –
C(=N\Nc1ccccc1)/c1ccc(N2CCOCC2)cc1 | active: 17.8 µM | –
Cc1onc(COc2ccccc2O)c1Br | inconclusive: 0.0045 µM [activator, full curve, poor fit] | –
O=C(Nc1nc2c(s1)CN(Cc1ccccc1)CC2)c1c(F)cccc1F | inconclusive: 35.5 µM [activator, single point] | –
Cc1cccc(NC(=O)c2ccc(N3CCOCC3)c([N+](=O)[O-])c2)n1 | inconclusive: 12.6 µM [activator, partial curve] | –
Cn1c(SCc2c(F)cccc2Cl)nnc1-c1cnccn1 | inconclusive: 10 µM [activator, partial curve] | –
CCOC(=O)Nc1cc(OC)c(OC)cc1Cc1nccc2cc(OC)c(OC)cc12 | inconclusive: 35.5 µM [activator, single point] | –
CN(NC(=O)c1ccc(Cl)cc1)c1nc(-c2ccccc2)nnc1C(F)(F)F | inconclusive: 0.316 µM [activator, partial curve] | –
Cc1cc(NC(=O)CS(=O)(=O)c2cn(C)c3ccccc23)no1 | inconclusive: 0.631 µM [activator, full curve, poor fit] | –
Cc1cc(C(F)(F)F)n2ncc(-c3ccc(F)cc3)c2n1 | – | inactive: -20%
CC12CC3(C)CC(C)(C1)CC(C(=O)NC(=S)NC(C)(C)C)(C2)C3 | inconclusive: 0.0282 µM [activator, full curve] | –
COc1ccc(-c2nc(C#N)c(NCC3CCCO3)o2)cc1OC (centres undefined) | inconclusive: 12.6 µM [activator, single point] | –
CCNC(=O)NC(=O)C(C)OC(=O)Cc1coc2cc3c(cc12)CCC3 (centres undefined) | inconclusive: 31.6 µM [activator, single point] | –
COc1ccc(-n2ncc3c(NCC4CCCO4)ncnc32)cc1 (centres undefined) | active: 11.2 µM | –
Cc1ccc(/C=N/N2CCN(c3ccccc3)CC2)cc1 | inconclusive: 10 µM [activator, partial curve] | –
CN(Cc1cccs1)C(=O)Cc1csc(-c2ccccc2)n1 | inconclusive: 6.31 µM [activator, partial curve] | –
CC(C)C(=O)NC(=S)Nc1ccc(S(=O)(=O)Nc2ccccc2)cc1 | inconclusive: 3.98 µM [activator, single point] | –
CC(=O)Nc1ccc(N2N=C(C)C(N=Nc3ccccc3)C2=O)cc1 (centres undefined) | inconclusive: 7.08 µM [activator, partial curve] | –
COc1ccc2[nH]c(=O)c(C(c3nnnn3CC3CCCO3)N3CCc4ccccc4C3)cc2c1 (centres undefined) | inconclusive: 3.55 µM [activator, single point] | –
COc1ccc(-c2c(C#N)c(SCC(=O)Nc3ccccc3C)nc(C)c2C(=O)Nc2ccc(Cl)cc2)cc1 | inconclusive: 35.5 µM [activator, partial curve, poor fit] | –
CCOC(=O)c1cc2c(s1)-c1c(C)cccc1OC2 | – | inactive: -0.145%
CCOC(=O)/C(C#N)=C/c1ccc(SC)cc1 | – | inactive: -24.1%
